Data on 19 variants can be found in the supplement of paper PMC7125110.

The chains are these.
B1: glmS ribozyme (parent)
chain: AUAAAAGCGCCAGAACUACAGAAAUGUAGUUGACGAGGAGGAGGUUUAUCGAAUUUUCGGCGGAUGCCUCCAAA

Details in all cases: with glucosamine-6-phosphate
The variants in series [1] derive from B1. The series can be described thus: self-cleavage kobs at 640 uM GlcN6P; higher = faster cleavage; RNA array. The gist of the method:
(§1)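 Barcoded ribozyme variants, transcribed in situ by E. coli RNA polymerase on sequenced MiSeq chips, were followed via a hybridised Cy3 probe at 37 °C. Glucosamine-6-phosphate ranged from 40 μM to 10 mM in HEPES/KCl/Mg(OAc)2 buffer. kobs came from decay fits to per-tile medians, and kcat and KM from weighted Michaelis–Menten fits.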

Variants of B1 are the subject of series [2]. The series can be described thus: self-cleavage kobs at 2500 uM GlcN6P; higher = faster cleavage; RNA array. The gist of the method:
as §1

Series [3] covers variants of B1. The series can be described thus: self-cleavage kobs at 160 uM GlcN6P; higher = faster cleavage; RNA array. The gist of the method: as §1
In series [4] the parent is B1. As to the kind of experiment: self-cleavage kobs at 10000 uM GlcN6P; higher = faster cleavage; RNA array. The gist of the method:
as §1

± gives the standard error. This sample is rich in variants without activity. Where only a bound is given, the exact number is not on record here.

For the variant AUAAAAGCGCCAGAACUACAGAAAUGUAGUUGACGAGGAGGAGGUUUAUCGAAUUUUGGGCGGAUGCCUCGAAA [C58G C71G], the “self-cleavage kobs at 640 uM GlcN6P” value with glucosamine-6-phosphate [1] is 3.12e-05 ± 1.3e-05 s⁻¹. In addition, the “self-cleavage kobs at 2500 uM GlcN6P” value with glucosamine-6-phosphate [2] was 3.56e-05 ± 1.5e-05 s⁻¹.
In the case of AUAAAAGCGCCAGAACUACAGAAAUGUAGUUGACGAGGAGGAGGUUUAUCGAAUUCGCGGCGGAUGCCUACAAA [U56C U57G C70A], the “self-cleavage kobs at 640 uM GlcN6P” value with glucosamine-6-phosphate [1] was less than 1e-05 s⁻¹.
As for AUAAAAGCGCCAGAACUACAGAAAUGUAGUUGACGAGGAGGAGGUUUAUCGAUUUUUCGGCGUUUACCUCCAAA [A53U G63U A64U G66A], in the series with glucosamine-6-phosphate [1], the “self-cleavage kobs at 640 uM GlcN6P” value was less than 1e-05 s⁻¹. For the same variant, the “self-cleavage kobs at 2500 uM GlcN6P” value in the series with glucosamine-6-phosphate [2] is less than 1e-05 s⁻¹.
As for AUAAAAGCGCCAGAACUACAGAAAUGUAGUUGACGAGGAGGAGGUUUAUCGAACUUUCGGCCGAGGCCGCCAAA [U54C G62C U65G U69G], in the series with glucosamine-6-phosphate [1], the “self-cleavage kobs at 640 uM GlcN6P” value is less than 1e-05 s⁻¹.
Turning to AUAAAAGCGCCAGAACUACAGAAAUGUAGUUGACGAGGAGGAGGUUUAUCGAAUUUUCCGUGGAUGCCUCCAAA [G59C C61U], the “self-cleavage kobs at 640 uM GlcN6P” value in the series with glucosamine-6-phosphate [1] is less than 1e-05 s⁻¹. Further, the “self-cleavage kobs at 160 uM GlcN6P” value with glucosamine-6-phosphate [3] was less than 1e-05 s⁻¹.
In the case of AUAAAAGCGCCAGAACUACAGAAAUGUAGUUGACGAGGAGGAGGUUUAUCGAAAUUUCGGCGUAUGCCUCCAAA [U54A G63U], in the series with glucosamine-6-phosphate [1], the “self-cleavage kobs at 640 uM GlcN6P” value was less than 1e-05 s⁻¹. The “self-cleavage kobs at 10000 uM GlcN6P” value in the series with glucosamine-6-phosphate [4] was less than 1e-05 s⁻¹.
Regarding AUAAAAGCGCCAGAACUACAGAAAUGUAGUUGACGAGGAGGAGGUUUAUCGAAGUUAGGGCGGAUGCAUCCAAA [U54G U57A C58G C68A], the “self-cleavage kobs at 640 uM GlcN6P” value with glucosamine-6-phosphate [1] is 0.000592 ± 0.00015 s⁻¹.
As to AUAAAAGCGCCAGAACUACAGAAAUGUAGUUGACGAGGAGGAGGUUUAUCGAAUUUUCGUCGGCUGCCUCCAAA [G60U A64C], the “self-cleavage kobs at 640 uM GlcN6P” value with glucosamine-6-phosphate [1] was less than 1e-05 s⁻¹. In the series with glucosamine-6-phosphate [3], the “self-cleavage kobs at 160 uM GlcN6P” value is less than 1e-05 s⁻¹. In the series with glucosamine-6-phosphate [2], the “self-cleavage kobs at 2500 uM GlcN6P” value is less than 1e-05 s⁻¹.
As for AUAAAAGCGCCAGAACUACAGAAAUGUAGUUGACGAGGAGGAGGUUUAUCGAUUUAUCGGCGGAUGCCUCUAAA [A53U U56A C71U], the “self-cleavage kobs at 640 uM GlcN6P” value in the series with glucosamine-6-phosphate [1] came to 0.00121 ± 0.00015 s⁻¹. Further, the “self-cleavage kobs at 2500 uM GlcN6P” value in the series with glucosamine-6-phosphate [2] was found to be 0.00323 ± 0.00064 s⁻¹.
For the variant AUAAAAGCGCCAGAACUACAGAAAUGUAGUUGACGAGGAGGAGGUUUAUCGAAUUAUCGGUGGGUGCCUCCAAA [U56A C61U A64G], the “self-cleavage kobs at 640 uM GlcN6P” value in the series with glucosamine-6-phosphate [1] is less than 1e-05 s⁻¹.
For the variant AUAAAAGCGCCAGAACUACAGAAAUGUAGUUGACGAGGAGGAGGUUUAUCGAAUUUCCUGCGGAUGCCUCCAAA [U57C G59U], the “self-cleavage kobs at 640 uM GlcN6P” value with glucosamine-6-phosphate [1] was less than 1e-05 s⁻¹. In the series with glucosamine-6-phosphate [2], the “self-cleavage kobs at 2500 uM GlcN6P” value was less than 1e-05 s⁻¹.
For AUAAAAGCGCCAGAACUACAGAAAUGUAGUUGACGAGGAGGAGGUUUAUCGAACUUUCGCCGGAUGCCUCGAAA [U54C G60C C71G], the “self-cleavage kobs at 640 uM GlcN6P” value in the series with glucosamine-6-phosphate [1] was less than 1e-05 s⁻¹. For the same variant, the “self-cleavage kobs at 2500 uM GlcN6P” value in the series with glucosamine-6-phosphate [2] was less than 1e-05 s⁻¹.
As for AUAAAAGCGCCAGAACUACAGAAAUGUAGUUGACGAGGAGGAGGUUUAUCGAAUCUUUGGCGGAUGCCUCGAAA [U55C C58U C71G], the “self-cleavage kobs at 640 uM GlcN6P” value with glucosamine-6-phosphate [1] was less than 1e-05 s⁻¹. Moreover, the “self-cleavage kobs at 160 uM GlcN6P” value in the series with glucosamine-6-phosphate [3] was less than 1e-05 s⁻¹.
On to AUAAAAGCGCCAGAACUACAGAAAUGUAGUUGACGAGGAGGAGGUUUAUCGAAUUAUCGGCGGAUGCCGCCAAA [U56A U69G], for which the “self-cleavage kobs at 640 uM GlcN6P” value in the series with glucosamine-6-phosphate [1] was 5.7e-05 ± 2e-05 s⁻¹. Further, the “self-cleavage kobs at 160 uM GlcN6P” value in the series with glucosamine-6-phosphate [3] was found to be 5.23e-05 ± 1e-05 s⁻¹. For the same variant, the “self-cleavage kobs at 2500 uM GlcN6P” value with glucosamine-6-phosphate [2] is 0.000127 ± 4.2e-05 s⁻¹.
As for AUAAAAGCGCCAGAACUACAGAAAUGUAGUUGACGAGGAGGAGGUUUAUCGAAUUUGCGGCGGAUGGCUCCAAA [U57G C67G], the “self-cleavage kobs at 640 uM GlcN6P” value with glucosamine-6-phosphate [1] amounted to 0.000478 ± 0.00018 s⁻¹.
In the case of AUAAAAGCGCCAGAACUACAGAAAUGUAGUUGACGAGGAGGAGGUUUAUCGAAUUUGCGGCGGUUGCCUCCAAA [U57G A64U], the “self-cleavage kobs at 640 uM GlcN6P” value with glucosamine-6-phosphate [1] was less than 1e-05 s⁻¹. Also, the “self-cleavage kobs at 160 uM GlcN6P” value in the series with glucosamine-6-phosphate [3] was less than 1e-05 s⁻¹. Further, the “self-cleavage kobs at 2500 uM GlcN6P” value with glucosamine-6-phosphate [2] is less than 1e-05 s⁻¹. The “self-cleavage kobs at 10000 uM GlcN6P” value with glucosamine-6-phosphate [4] is less than 1e-05 s⁻¹.
Regarding AUAAAAGCGCCAGAACUACAGAAAUGUAGUUGACGAGGAGGAGGUUUAUCGAAUGUUCGCCGUAUGCCUCCAAA [U55G G60C G63U], the “self-cleavage kobs at 640 uM GlcN6P” value with glucosamine-6-phosphate [1] is less than 1e-05 s⁻¹. In the series with glucosamine-6-phosphate [2], the “self-cleavage kobs at 2500 uM GlcN6P” value was less than 1e-05 s⁻¹.
AUAAAAGCGCCAGAACUACAGAAAUGUAGUUGACGAGGAGGAGGUUUAUCGAACUUUCGGCUGUUGCCUCCAAA [U54C G62U A64U]: the “self-cleavage kobs at 640 uM GlcN6P” value with glucosamine-6-phosphate [1] is less than 1e-05 s⁻¹. Besides, the “self-cleavage kobs at 160 uM GlcN6P” value with glucosamine-6-phosphate [3] is less than 1e-05 s⁻¹.
AUAAAAGCGCCAGAACUACAGAAAUGUAGUUGACGAGGAGGAGGUUUAUCGAAUUUUCGCUGGAUGCCUCCAAA [G60C C61U]: the “self-cleavage kobs at 640 uM GlcN6P” value with glucosamine-6-phosphate [1] is less than 1e-05 s⁻¹. For the same variant, in the series with glucosamine-6-phosphate [3], the “self-cleavage kobs at 160 uM GlcN6P” value was less than 1e-05 s⁻¹. The “self-cleavage kobs at 2500 uM GlcN6P” value with glucosamine-6-phosphate [2] was less than 1e-05 s⁻¹. Further, in the series with glucosamine-6-phosphate [4], the “self-cleavage kobs at 10000 uM GlcN6P” value was less than 1e-05 s⁻¹.
